# According to the supplement of paper PMC8728848:
# This is one part of the list.
# B1: PILRa (Homo sapiens), Q9UKJ1 (protein)
# chain: MGRPLLLPLLPLLLPPAFLQPSGSTGSGPSYLYGVTQPKHLSASMGGSVEIPFSFYYPWELATAPDVRISWRRGHFHRQSFYSTRPPSIHKDYVNRLFLNWTEGQKSGFLRISNLQKQDQSVYFCRVELDTRSSGRQQWQSIEGTKLSITQAVTTTTQRPSSMTTTWRLSSTTTTTGLRVTQGKRRSDSWHISLETAVGVAVAVTVLGIMILGLICLLRWRRRKGQQRTKATTPAREPFQNTEEPYENIRNEGQNTDPKLNPKDDGIVYASLALSSSTSPRAPPSHRPLKSPQNETLYSVLKA
# Columns and labels:
# Test in all cases: glycan array binding signal (z-score within array); higher = stronger binding
# Details in all cases: glycan notation: IUPAC condensed, linker removed
# [1] = target: GlcNAc(b1-2)[GlcNAc(b1-6)]Man(a1-6)[GlcNAc(b1-2)Man(a1-3)]Man(b1-4)GlcNAc(b1-4)GlcNAc
# Procedure, shortened: (§1)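 The binding signal is a Z-score computed within each array and averaged over linkers. Arrays of the same protein sequence at different concentrations or buffers were also averaged together. Data originate from 3228 arrays in the Consortium for Functional Glycomics database, kept only where the protein sequence was available.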
# [2] = target: GlcNAc(b1-2)[GlcNAc(b1-6)]Man(a1-6)[GlcNAc(b1-2)Man(a1-3)][GlcNAc(b1-4)]Man(b1-4)GlcNAc(b1-4)GlcNAc
# Procedure, shortened: as §1
# GlcNAc(b1-3)Gal = target: GlcNAc(b1-3)Gal
# Procedure, shortened: as §1
# [3] = target: GlcNAc(b1-3)Gal(b1-3)GalNAc
# Procedure, shortened: as §1
# GlcNAc(b1-3)Gal(b1-4)Glc = target: GlcNAc(b1-3)Gal(b1-4)Glc
# Procedure, shortened: as §1
# [4] = target: GlcNAc(b1-3)Gal(b1-4)GlcNAc
# Procedure, shortened: as §1
# [5] = target: GlcNAc(b1-3)Gal(b1-4)GlcNAc(b1-3)Gal(b1-4)GlcNAc
# Procedure, shortened: as §1
# GlcNAc(b1-3)GalNAc = target: GlcNAc(b1-3)GalNAc
# Procedure, shortened: as §1
# GlcNAc(b1-3)Man = target: GlcNAc(b1-3)Man
# Procedure, shortened: as §1
# [6] = target: GlcNAc(b1-3)[GlcNAc(b1-4)][GlcNAc(b1-6)]GlcNAc
# Procedure, shortened: as §1
# [7] = target: GlcNAc(b1-3)[GlcNAc(b1-6)]Gal(b1-4)GlcNAc
# Procedure, shortened: as §1
# [8] = target: GlcNAc(b1-3)[GlcNAc(b1-6)]GalNAc
# Procedure, shortened: as §1
# [9] = target: GlcNAc(b1-4)Gal(b1-4)GlcNAc
# Procedure, shortened: as §1
# GlcNAc(b1-4)GlcNAc = target: GlcNAc(b1-4)GlcNAc
# Procedure, shortened: as §1
# [10] = target: GlcNAc(b1-4)GlcNAc(b1-4)GlcNAc
# Procedure, shortened: as §1
# [11] = target: GlcNAc(b1-4)GlcNAc(b1-4)GlcNAc(b1-4)GlcNAc(b1-4)GlcNAc
# Procedure, shortened: as §1
# [12] = target: GlcNAc(b1-4)GlcNAc(b1-4)GlcNAc(b1-4)GlcNAc(b1-4)GlcNAc(b1-4)GlcNAc
# Procedure, shortened: as §1
# [13] = target: GlcNAc(b1-4)[GlcNAc(b1-6)]GalNAc
# Procedure, shortened: as §1
# [14] = target: GlcNAc(b1-6)Gal(b1-4)GlcNAc
# Procedure, shortened: as §1
# GlcNAc(b1-6)GalNAc = target: GlcNAc(b1-6)GalNAc
# Procedure, shortened: as §1
# GlcNAc3Prop(b1-4)GlcNAc = target: GlcNAc3Prop(b1-4)GlcNAc
# Procedure, shortened: as §1
# [15] = target: GlcNAc6S(b1-3)Gal(b1-4)GlcNAc
# Procedure, shortened: as §1
# Kdn(a2-3)Gal(b1-3)GalNAc = target: Kdn(a2-3)Gal(b1-3)GalNAc
# Procedure, shortened: as §1
# Kdn(a2-3)Gal(b1-3)GlcNAc = target: Kdn(a2-3)Gal(b1-3)GlcNAc
# Procedure, shortened: as §1
# Kdn(a2-3)Gal(b1-4)Glc = target: Kdn(a2-3)Gal(b1-4)Glc
# Procedure, shortened: as §1
# Kdn(a2-3)Gal(b1-4)GlcNAc = target: Kdn(a2-3)Gal(b1-4)GlcNAc
# Procedure, shortened: as §1
# [16] = target: Kdn(a2-3)Gal(b1-4)[Fuc(a1-3)]GlcNAc
# Procedure, shortened: as §1
# Kdn(a2-6)Gal(b1-4)GlcNAc = target: Kdn(a2-6)Gal(b1-4)GlcNAc
# Procedure, shortened: as §1
# [17] = target: Man(a1-2)Man(a1-2)Man(a1-3)Man
# Procedure, shortened: as §1
# [18] = target: Man(a1-2)Man(a1-2)Man(a1-6)[Man(a1-3)]Man
# Procedure, shortened: as §1
# Man(a1-2)Man(a1-3)Man = target: Man(a1-2)Man(a1-3)Man
# Procedure, shortened: as §1
# [19] = target: Man(a1-2)Man(a1-3)[Man(a1-2)Man(a1-6)]Man
# Procedure, shortened: as §1
# [20] = target: Man(a1-2)Man(a1-3)[Man(a1-2)Man(a1-6)]Man(a1-6)[Man(a1-2)Man(a1-2)Man(a1-3)]Man
# Procedure, shortened: as §1
# [21] = target: Man(a1-2)Man(a1-3)[Man(a1-2)Man(a1-6)]Man(a1-6)[Man(a1-2)Man(a1-2)Man(a1-3)]Man(b1-4)GlcNAc(b1-4)GlcNAc
# Procedure, shortened: as §1
# [22] = target: Man(a1-2)Man(a1-3)[Man(a1-6)]Man(a1-6)[Man(a1-2)Man(a1-3)]Man(b1-4)GlcNAc(b1-4)GlcNAc
# Procedure, shortened: as §1
# [23] = target: Man(a1-2)Man(a1-6)[Man(a1-3)]Man(a1-6)[Man(a1-2)Man(a1-2)Man(a1-3)]Man
# Procedure, shortened: as §1
# [24] = target: Man(a1-2)Man(a1-6)[Man(a1-3)]Man(a1-6)[Man(a1-2)Man(a1-2)Man(a1-3)]Man(b1-4)GlcNAc(b1-4)GlcNAc
# Procedure, shortened: as §1
binder,measurement,setting,value
B1,glycan array binding signal (z-score),[1],-0.167
same,glycan array binding signal (z-score),[2],-0.193
same,glycan array binding signal (z-score),GlcNAc(b1-3)Gal,-0.28
same,glycan array binding signal (z-score),[3],0.384
same,glycan array binding signal (z-score),GlcNAc(b1-3)Gal(b1-4)Glc,-0.077
same,glycan array binding signal (z-score),[4],-0.326
same,glycan array binding signal (z-score),[5],-0.259
same,glycan array binding signal (z-score),GlcNAc(b1-3)GalNAc,-0.116
same,glycan array binding signal (z-score),GlcNAc(b1-3)Man,-0.253
same,glycan array binding signal (z-score),[6],-0.23
same,glycan array binding signal (z-score),[7],-0.307
same,glycan array binding signal (z-score),[8],-0.261
same,glycan array binding signal (z-score),[9],-0.237
same,glycan array binding signal (z-score),GlcNAc(b1-4)GlcNAc,-0.15
same,glycan array binding signal (z-score),[10],-0.136
same,glycan array binding signal (z-score),[11],-0.089
same,glycan array binding signal (z-score),[12],-0.305
same,glycan array binding signal (z-score),[13],-0.213
same,glycan array binding signal (z-score),[14],-0.197
same,glycan array binding signal (z-score),GlcNAc(b1-6)GalNAc,-0.232
same,glycan array binding signal (z-score),GlcNAc3Prop(b1-4)GlcNAc,-0.294
same,glycan array binding signal (z-score),[15],-0.138
same,glycan array binding signal (z-score),Kdn(a2-3)Gal(b1-3)GalNAc,-0.121
same,glycan array binding signal (z-score),Kdn(a2-3)Gal(b1-3)GlcNAc,0.431
same,glycan array binding signal (z-score),Kdn(a2-3)Gal(b1-4)Glc,-0.121
same,glycan array binding signal (z-score),Kdn(a2-3)Gal(b1-4)GlcNAc,-0.433
same,glycan array binding signal (z-score),[16],0.561
same,glycan array binding signal (z-score),Kdn(a2-6)Gal(b1-4)GlcNAc,-0.3
same,glycan array binding signal (z-score),[17],-0.07
same,glycan array binding signal (z-score),[18],-0.343
same,glycan array binding signal (z-score),Man(a1-2)Man(a1-3)Man,-0.144
same,glycan array binding signal (z-score),[19],-0.276
same,glycan array binding signal (z-score),[20],-0.301
same,glycan array binding signal (z-score),[21],-0.324
same,glycan array binding signal (z-score),[22],-0.334
same,glycan array binding signal (z-score),[23],-0.337
same,glycan array binding signal (z-score),[24],-0.313
